# Measured values published in PMC4336329 (PLoS ONE, 2015).
# The campaign covered roughly 310,000 compounds. About 14,000 (4.5%) showed an effect of 50% or more. The effect is printed as a negative number. Some of the results follow. Where a SMILES comes first, the peptide text is derived from it. [ ]: non-standard residue; d: D form. The star is where a group is joined. Hyp = O=C(O)[CH]1C[CH](O)CN1; Cbz = O=C(OCc1ccccc1)*; OBn = c1ccc(CO*)cc1
# Target: human ether-à-go-go-related gene (hERG) potassium channel (human, UniProt Q12809)
# Assay: primary screen, population patch clamp on CHO cells stably expressing hERG
# 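Also: peak tail current of the secondary pulse compared with the same well before compound.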
# Sequence of human ether-à-go-go-related gene (hERG) potassium channel (Q12809 whole entry, looked up): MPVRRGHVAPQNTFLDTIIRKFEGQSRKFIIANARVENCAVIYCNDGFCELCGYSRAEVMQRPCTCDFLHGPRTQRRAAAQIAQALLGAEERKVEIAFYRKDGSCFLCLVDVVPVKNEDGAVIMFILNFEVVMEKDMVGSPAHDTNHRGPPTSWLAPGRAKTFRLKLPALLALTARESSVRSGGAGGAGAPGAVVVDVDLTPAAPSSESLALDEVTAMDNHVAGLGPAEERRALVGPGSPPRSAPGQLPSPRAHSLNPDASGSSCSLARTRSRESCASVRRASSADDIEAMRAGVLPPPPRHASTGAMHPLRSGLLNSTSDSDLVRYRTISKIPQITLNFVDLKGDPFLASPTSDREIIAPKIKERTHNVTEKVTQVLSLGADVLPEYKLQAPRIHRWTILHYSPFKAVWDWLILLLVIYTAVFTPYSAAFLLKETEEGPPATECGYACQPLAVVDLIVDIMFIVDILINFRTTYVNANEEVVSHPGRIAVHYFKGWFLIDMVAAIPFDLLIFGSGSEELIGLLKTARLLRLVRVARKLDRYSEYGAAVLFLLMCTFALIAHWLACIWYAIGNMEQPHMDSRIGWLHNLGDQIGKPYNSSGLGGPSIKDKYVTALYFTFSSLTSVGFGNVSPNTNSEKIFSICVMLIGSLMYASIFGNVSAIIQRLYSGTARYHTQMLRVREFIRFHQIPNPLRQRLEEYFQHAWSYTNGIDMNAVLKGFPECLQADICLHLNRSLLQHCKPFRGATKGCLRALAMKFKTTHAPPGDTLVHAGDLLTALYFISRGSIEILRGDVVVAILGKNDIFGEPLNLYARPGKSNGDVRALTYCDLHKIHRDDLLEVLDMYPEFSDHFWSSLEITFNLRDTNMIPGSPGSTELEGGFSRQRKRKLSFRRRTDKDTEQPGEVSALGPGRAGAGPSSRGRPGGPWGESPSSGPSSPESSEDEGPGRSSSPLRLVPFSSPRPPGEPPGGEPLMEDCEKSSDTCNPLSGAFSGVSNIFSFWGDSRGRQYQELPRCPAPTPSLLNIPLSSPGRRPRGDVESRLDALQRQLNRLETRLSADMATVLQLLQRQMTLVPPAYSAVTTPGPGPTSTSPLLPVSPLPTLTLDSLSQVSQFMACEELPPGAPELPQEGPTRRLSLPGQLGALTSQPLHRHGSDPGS
row,SMILES,"hERG current change (%, negative = inhibition) at 10uM [%]"
1,Cc1c(C(=O)N(Cc2cccc(Br)c2)C2CCS(=O)(=O)C2)oc2ccccc12 (stereo not shown),5.56
2,CCC(CC)C(=O)Nc1cc([N+](=O)[O-])ccc1F,-2.25
3,O=C(CC1(C(=O)O)CCCC1)N1CCOCC1,0.116
4,Cc1cc(C(=O)CSCCCn2c(=O)[nH]c3ccccc32)c(C)n1C,7.93
5,Cc1cccc(C(=O)NNC(=O)c2ccc(NC(=O)C(C)(C)C)cc2)c1,30
6,Cc1cc(/C=N/n2cnnc2)c(C)n1-c1ccc(OCc2ccc(F)cc2)cc1,6.48
7,Cc1ccc(NS(=O)(=O)c2ccc(Cl)c(NC(=S)NC(=O)C3CCCCC3)c2)cc1Cl,6.62
8,CC(C)c1nc2c(c(=O)c3ccccc3n2C)c(=O)n1CCc1ccccc1,-15.8
9,Cc1ccc(S(=O)(=O)CCC(=O)OCc2ccc(Cl)c(Cl)c2)cc1,-0.173
10,COc1ccc(N(C(C)C(=O)Nc2ccc(S(=O)(=O)N3CCOCC3)cc2)S(C)(=O)=O)cc1 (stereo not shown),9.23
11,CCOc1ncccc1C(=O)OCC(=O)c1ccccc1,29.5
12,CC(C)NC(=O)NC(=O)CSc1ncccn1,15.7
13,COc1ccccc1N(CC(=O)NCCSCc1cccc(Cl)c1)S(C)(=O)=O,-19.9
14,COc1ccc(C(=O)c2c(C)oc3cc([N+](=O)[O-])c(O)c([N+](=O)[O-])c23)cc1,2.71
15,CCOC(=O)C1CCN(C(=O)c2ccc(NS(=O)(=O)c3ccc(F)cc3C)cc2)CC1,-30.7
16,COc1ccc(CN2CC=C(c3ccc(F)cc3)CC2)cc1Br,-11.7
17,Cc1ccc(NC(=O)Cn2c(/C=C/c3ccccc3)nc3ccccc32)cc1C,-0.723
18,c1ccc(OCc2nc(-c3cccs3)no2)cc1,11.5
19,CCN1CCN(C(=O)C2CCN(Cc3cc(Cl)ccc3O)CC2)CC1.O=C(O)C(=O)O,-6.22
20,COCCn1c(SCC(=O)NCc2cccs2)nnc1-c1ccc(OC)cc1,15.3
21,COc1ccc(C(=O)OC2C[C@H]3CC[C@@H](C2)N3O)cc1OC (stereo partly shown),15.5
22,COC(=O)C1(C)NCCc2c1[nH]c1ccccc21 (stereo not shown),13

row,SMILES,"hERG current change (%, negative = inhibition) at 10uM [%]"
1,COc1ccc(S(=O)(=O)Nc2c(C(=O)O)[nH]c3ccc(OC)cc23)cc1,-13.6
2,O=C(CSc1nnc(-c2ccccc2)o1)N1CCCCC1,10.4
3,NNC(=O)c1cc2c(N3CCC(Cc4ccccc4)CC3)ncnc2s1,-10.5
4,COC(=O)c1ccc[n+](CCc2c[nH]c3ccccc23)c1.[Br-],18.2
5,CC(=O)Oc1ccc(C(=O)Nc2cccnc2)cc1,13.1
6,CCSc1nnc(NC(=O)c2ccc(C)o2)s1,2.45
7,CCOC(=O)Cc1csc(NC(=O)CCSc2ccccc2)n1,12.4
8,CCCn1c2ccccc2c2nnc(SCc3[nH]c(=O)[nH]c3C(=O)CCCCC(=O)OCC)nc21,15
9,CCO[C@@H]1OC(C(=O)N2CCN(Cc3ccc4c(c3)OCO4)CC2)=C[C@H](c2cn(C(C)=O)c3ccccc23)[C@H]1CCCO,-39.7
10,COc1ccccc1N1CCN(C(C)C(=O)Nc2ccc(S(=O)(=O)N3CCOCC3)cc2)CC1 (stereo not shown),-4.19
11,Cc1ccccc1OC/C(O)=C(\C#N)c1nc2ccccc2[nH]1,3.54
12,Cn1c(COc2ccc(Cl)cc2)nnc1SCC(=O)NC1CC1,-10.6
13,COc1ccc(-n2c(SCC(=O)Nc3cccc4ccccc34)nc(O)cc2=O)cc1,17.2
14,O=C(c1ccc(-n2c(SCc3cc(F)ccc3F)nc3ccccc3c2=O)cc1)N1CCOCC1,8.7
15,CCOCCCNC(=O)C(Cc1ccccc1)NS(=O)(=O)c1ccc2c(c1)c(=O)n(C)c(=O)n2C (stereo not shown),-4.96
16,Cc1ccc(-c2nn[nH]n2)cc1Cl,12.5
17,O=C1C2C3C=CC(C2C(=O)N1c1ccccc1O)C1C2C(=O)N(c4ccccc4O)C(=O)C2C31 (stereo not shown),13.8
18,Cc1nnsc1NC(=O)OCc1ccc(Cl)cc1Cl,-9.55
19,CCOc1ccccc1OCCOCCOc1c(Cl)cccc1Cl,-7.14
20,CC(C)c1nc(SCC(=O)N2CCOCC2)c2c(=O)n(C)c(=O)n(C)c2n1,0.676
21,CC1CCc2sc3ncn4nc(C(=O)NCc5ccco5)nc4c3c2C1 (stereo not shown),-9.9
22,CC(C)(C)C1CCc2onc(C(=O)Nc3ccc4c(c3)OCO4)c2C1 (stereo not shown),3.44

row,SMILES,"hERG current change (%, negative = inhibition) at 10uM [%]"
1,CC(=O)C1=C(C)NC(SCC(=O)c2ccc(Cl)c(Cl)c2)=C(C#N)C1c1ccco1 (stereo not shown),5.27
2,O=C(CN1C(=O)CCS(=O)(=O)c2ccccc21)NCc1ccc(F)cc1,-5.6
3,Nc1c(C(=O)Nc2ccccc2F)sc2nc(-c3cccnc3)ccc12,20.9
4,Cc1cc(CCCCCCCCc2cc(C)cc(=O)o2)oc(=O)c1,-2.63
5,Clc1ccccc1-c1ccc2ncnc(NCc3ccc4c(c3)OCO4)c2c1,7.32
6,COc1ccc(CN(C(=O)Cn2nnc3ccccc32)C(C(=O)NC(C)(C)C)c2ccco2)cc1 (stereo not shown),-1.16
7,CC(NC(=O)CNC(=O)OCc1ccccc1)C(=O)N1CC(O)CC1C(=O)OCc1ccccc1 (stereo not drawn) (Cbz-Gly-Ala-[Hyp]-OBn; configuration not given here),-0.0848
8,Cc1cc(C)n2c3c(c(C#N)c2n1)CC(C)(C)OC3,2.81
9,Cc1ccccc1C(=O)c1c[nH]c(C(N)=O)c1,13.4
10,COc1cc(C(=O)OCC(=O)Nc2ccc(C)cc2)cc(OC)c1OC,28.7
11,O=C(c1cc(Cl)cc(Cl)c1)N1CCC(=O)N(C(COCc2ccccc2)Cc2ccccc2)CC1 (stereo not shown),-10
12,CCOc1ccc(OCC)c(NC(=O)CCn2cccc2)c1,-0.568
13,COc1ccc(/C=C/C(=O)Nc2ccccc2C(=O)O)cc1,7.91
14,COc1ccc(NC(=O)CN(C)CCOc2ccc(Cl)cc2)cc1OC.O=C(O)C(=O)O,-17.4
15,CC(C)(C)c1cc([N+](=O)[O-])cc(C(C)(C)C)c1O,4.16
16,N#Cc1c2c(c(Nc3ccccc3)n3c1nc1ccccc13)CCC2,19.5
17,Clc1ccc(-c2noc(CN(Cc3ccccn3)CC3CCCO3)n2)cc1 (stereo not shown),-28.5
18,O=C(Nn1c(-c2ccncc2)nc2ccccc2c1=O)c1ccc(Br)cc1,-28.9
19,CCOC(=O)C1=C(COC(=O)C2CC(=O)N(c3ccc(CC)cc3)C2)NC(=O)NC1C (stereo not shown),-21.9
20,c1ccc(-n2ncc3c(N4CCN(c5ccccn5)CC4)nc(N4CCCCCC4)nc32)cc1,14.1
21,CC(=O)c1ccc(NC(=O)COC(=O)C2C3CC4OC(=O)C2C4C3)cc1 (stereo not shown),11.7
22,COc1ccc(CCN=C(NS(=O)(=O)c2ccccc2)c2ccccc2)cc1OC,14.8

row,SMILES,"hERG current change (%, negative = inhibition) at 10uM [%]"
1,O=C(CCc1nc(-c2cccs2)no1)NCc1ccc(F)cc1Cl,-22.3
2,O=C(CSc1ncnc2nc[nH]c12)Nc1ccccc1C(F)(F)F,7.74
3,CC(C)c1ccccc1NS(=O)(=O)c1cccs1,17.8
4,N#Cc1ccccc1NC(=O)CN1C(=O)NC(Cc2c[nH]c3ccccc23)C1=O (stereo not shown),0.694
5,O=C(Nc1cccs1)Nc1c(F)c(F)c(F)c(F)c1F,-36.1
6,O=C(N/N=C/c1ccc(N2CCCCC2)o1)c1ccccc1,1.25
7,CC(=O)Nc1ccc(NCc2cccs2)cc1,6.07
8,CCOC(=O)CC(NC(=O)CCc1c(C)nc2ncnn2c1C)c1ccc(C)cc1 (stereo not shown),-17.1
9,Cc1cccc(CCN(CC(=O)NC2CCCCC2)C(=O)c2csnn2)c1,-2.04
10,Cn1c(=O)[nH]c(=O)c2c1nc(N1CCc3ccccc3C1)n2CCSc1nc2ccccc2s1,11.1
11,CC(C)=CCN1CCN(Cc2cn(C(C)C)c3ccccc23)CC1CCO (stereo not shown),-10.5
12,O=C(OCC(=O)c1c[nH]c2ccccc12)c1ccc([N+](=O)[O-])s1,6.82
13,Cc1ccc2nc(N3CCN(CCO)CC3)nc(-c3ccccc3)c2c1,-54.4
14,CCN(CC)CCN(Cc1cc2cc3c(cc2[nH]c1=O)OCO3)C(=S)NCCCOC,-6.7
15,COc1cccc(-c2nc(CS(=O)CC(=O)O)c(C)o2)c1 (stereo not shown),-10.4
16,CC(=O)N/N=C/c1cc([N+](=O)[O-])ccc1OCCOc1ccccc1,0.245
17,CCN1CCN(Cc2c(OC)ccc3ccccc23)CC1,0.992
18,CCC(C)(C)NC(=O)c1sccc1Oc1ccc(F)cc1[N+](=O)[O-],1.02
19,COc1ccc(C(CNC(=O)c2cccn2C)N2CCOCC2)cc1 (stereo not shown),3.91
